The text below walks through data of the RNAGym collection of RNA variant scans (doi:10.1093/nar/gkz1192).

To fix the notation:
B1: CPEB3 Ribozyme (parent)
chain: UAACAGGGGGCCACAGCAGAAGCGUUCACGUCGCAGCCCCUGUCAGAUUCUGGUGAAUCUGCGAAUUCUGCUGUAUAUCUC

Read counts are not given, so values of variants with three or more changes are uncertain.

In this data set the parent is B1. In words: self-cleavage, relative activity (ratio to wild type); higher = more cleavage; in vitro, sequencing. Summed up: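 Libraries of CPEB3 self-cleaving ribozyme mutants came from rounds of error-prone PCR and carried barcodes, which DNA sequencing matched to variants. In vitro transcription used T7 RNA polymerase at 37°C for 5 hours, with a further 15 min in DNase I before EDTA stopped the reaction; the ribozymes cleaved during both steps. The RNA was reverse transcribed with template switching and sequenced on Illumina. Relative activity is the cleaved/total read fraction of a variant divided by that of the unmutated ribozyme, averaged over three batches with at least 5 reads.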
As to UAACAGGGGGCCACAGCAGAAGCGUUCACGUCGCAGCCUCUGUCAGAUUCUGGAGAAUCUGCGAAUUCCGCUGUAUAUCUC [C39U U54A U69C], the self-cleavage was found to be 0.3.

Regarding UAACAGGGGGCCACAGCAGAAGCGUUCACGUCGCAGCCCUUGUCAGAUCCUGGUGGAUCUGCGAGUUCUGCUGUAUAUCUC [C40U U49C A56G A65G], the self-cleavage came out at 0.2.

On to UAACAGGGGGCCACAGCAGAAGCGUUCACGUCGCAGCCCUUGUUAGAUUCUGGUGAAUCUGCGAGUUCCGCUGUAUUUCUC [C40U C44U A65G U69C A77U], for which the self-cleavage stood at 0.07.

As for UAACAGGGGGCCACAGCAGAAGCGUUCACGUCGCAGCCCAUGUAAGAUUCUGGUGAAUCUGCGAAUUCUGCAGUAUAUCUC [C40A C44A U72A], the self-cleavage was 0.15.

As for UAACAGGGGGCCACAGCAGAAGCGUUCACGUCGCAGCCCUUGUCAGGCACUGGUGAAUCUGCGAAUACUGCUGUAUACCUC [C40U A47G U48C U49A U67A U78C], the self-cleavage was 0.1.

For UAACAGGGGGCCACAGCAGAAGCGUUCACGUCGCAGCCUCUGUCAGGUUCUGGUGAAUCUGCGAAUUCCGCUGUUUAUCCC [C39U A47G U69C A75U U80C], the self-cleavage was found to be 0.08.

Take UAACAGGGGGCCACAGCAGAAGCGUUCACGUCGCAGCCACUGCCAGAUUCUGGUGAAUCAGCGAAUACUGCUGUAUAUCUC [C39A U43C U60A U67A]: the self-cleavage worked out at 0.09.

In the case of UAACAGGGGGCCACAGCAGAAGCGUUCACGUCGCAGCCCUUGUCAGAUUCUGGUGAAUCUGCGAAUUCUGCUGUUUGUCUC [C40U A75U A77G], the self-cleavage amounted to 0.65.

As for UAACAGGGGGCCACAGCAGAAGCGUUCACGUCGCAGCUCCUGUCAGAUUCUGGUGAACCUGCGAAUUCUGCUGUAUAUAUC [C38U U58C C79A], the self-cleavage came to 0.72.

For the variant UAACAGGGGGCCACAGCAGAAGCGUUCACGUCGCAGCCCAUGUCAGAUUCUGGUGAAUCUGCUAAUUCUGCUGUGUAUCUC [C40A G63U A75G], the self-cleavage turned out to be 0.2.

As for UAACAGGGGGCCACAGCAGAAGCGUUCACGUCGCAGCCACUGUCAGAUUCUGGUAAAUCUGCGAAUUCUGCAGUACACCUC [C39A G55A U72A U76C U78C], the self-cleavage was 0.07.

In the case of UAACAGGGGGCCACAGCAGAAGCGUUCACGUCGCAGCCCAUGUCAGAUUCCGGUGAAUCUGCGUAUUCUGCUGUAUAUCUC [C40A U51C A64U], the self-cleavage stood at 0.07.

As for UAACAGGGGGCCACAGCAGAAGCGUUCACGUCGCAGCCUCAGUCAGAUUCUGGUGAAUCCGCGAAUUCUGCUGUAUAUCUC [C39U U41A U60C], the self-cleavage amounted to 0.13.

Take UAACAGGGGGCCACAGCAGAAGCGUUCACGUCGCAGCCCAUGUCAGACUCUGGUGAAUCUGCGGAUUCUGCUGUAAAUCUC [C40A U48C A64G U76A]: the self-cleavage was 0.2.

As for UAACAGGGGGCCACAGCAGAAGCGUUCACGUCGCAGCCCUUGUCAGAUUCUGGUGAGUCUGCGAAAUCUGCUGUAUAUCUC [C40U A57G U66A], the self-cleavage worked out at 0.16.

Consider UAACAGGGGGCCACAGCAGAAGCGUUCACGUCGCAGCCCUUGUGAGAUUCUGGUGAAUCUGCGAAUUCAGCAGUAUAUCUC [C40U C44G U69A U72A], for which the self-cleavage worked out at 0.08.

As for UAACAGGGGGCCACAGCAGAAGCGUUCACGUCGCAGCCUCUGUCAGAUCCUGGUGAAUCUGCGAAUUCUGCUGUAUAUCCC [C39U U49C U80C], the self-cleavage came out at 0.5.

On to UAACAGGGGGCCACAGCAGAAGCGUUCACGUCGCAGCCCAUGUCAGAUUCUGGUGAAUCUGCGAAUCCUGCUGUAGAUCUC [C40A U67C U76G], for which the self-cleavage worked out at 0.16.

Regarding UAACAGGGGGCCACAGCAGAAGCGUUCACGUCGCAGCCCGCGUCAGAUUCUGGUGAAUCUGCGAAUUCUGCCGUAUAUCUC [C40G U41C U72C], the self-cleavage came out at 0.61.

With UAACAGGGGGCCACAGCAGAAGCGUUCACGUCGCAGCCCUUAUCAGAUUCUGGUGAACCUGCGAAUUCUGCUGUAUAUCUC [C40U G42A U58C], the self-cleavage was determined as 0.16.

With UAACAGGGGGCCACAGCAGAAGCGUUCACGUCGCAGCCCUUGUCAGAUUCUGGUGAAUCAGCGGAUUCUGCUGUAUAUCUC [C40U U60A A64G], the self-cleavage worked out at 0.15.

Take UAACAGGGGGCCACAGCAGAAGCGUUCACGUCGCAGCCCAUGUCAGAUUCUGGCGAAUCAGCGAAUUCUGCUGUAUAUCUC [C40A U54C U60A]: the self-cleavage came to 0.14.

As for UAACAGGGGGCCACAGCAGAAGCGUUCACGUCGCAGCCCAUGUCAGAUUCUGGUGAGUCUGCGAAUUCGGCUGUAUAUCUC [C40A A57G U69G], the self-cleavage came out at 0.13.

With UAACAGGGGGCCACAGCAGAAGCGUUCACGUCGCAGCCCUUGUCAGAUUCUGGUGGGUCUGCGAAUUCUUCUGUAUAUCUC [C40U A56G A57G G70U], the self-cleavage came out at 0.15.

Regarding UAACAGGGGGCCACAGCAGAAGCGUUCACGUCGCAGCCCUUGCCAGAUUCAGGUGAAUCUGCGAAUCCUGCUGUAUAUCUC [C40U U43C U51A U67C], the self-cleavage came out at 0.08.

As for UAACAGGGGGCCACAGCAGAAGCGUUCACGUCGCAGCCACUGUCAGAUUCAGGUGGAUCUGCGAACUCUGCUGUAUAUCUC [C39A U51A A56G U66C], the self-cleavage was 0.32.

With UAACAGGGGGCCACAGCAGAAGCGUUCACGUCGCAGCCUCUGUCAGAUCCUGGUGAAUCAGCGAAUUCUGCUGUAUAUCUC [C39U U49C U60A], the self-cleavage was determined as 0.17.

With UAACAGGGGGCCACAGCAGAAGCGUUCACGUCGCAGCCCAUGUCAGAUUCUGGUGAAUCUGCGAGUUCUGCGGUAUAUCUC [C40A A65G U72G], the self-cleavage worked out at 0.1.

UAACAGGGGGCCACAGCAGAAGCGUUCACGUCGCAGCCCUUGUUAGAUUCUGGUGAAUCUGCGAACUCUGCUGUAUAUCUU [C40U C44U U66C C81U]: the self-cleavage was 0.12.

On to UAACAGGGGGCCACAGCAGAAGCGUUCACGUCGCAGCCGCUGUCAGAUUCUGGUGAAACUGCGAAUUCUGCUGUGUAUCCC [C39G U58A A75G U80C], for which the self-cleavage came out at 0.08.

As to UAACAGGGGGCCACAGCAGAAGCGUUCACGUCGCAGCCUCUGUCAGAUUCAGGUGAAUCUGCGAAUUCUGCCGUAUAUCUC [C39U U51A U72C], the self-cleavage was 1.05.

Turning to UAACAGGGGGCCACAGCAGAAGCGUUCACGUCGCAGCCGCUGCCAGAUUCUGGUGAACCUGCGAGUUCUGCUGUAUAUCUC [C39G U43C U58C A65G], the self-cleavage was determined as 0.28.

In the case of UAACAGGGGGCCACAGCAGAAGCGUUCACGUCGCAGCCCAUGUCUGAUUCUGGUGAAUCUGCGGAUUCUGCUGUAUAUCUC [C40A A45U A64G], the self-cleavage was 0.2.

For UAACAGGGGGCCACAGCAGAAGCGUUCACGUCGCAGCCUCCGUCAGAUCCUGGUGAAUCUGCGAAUUCUGCUGUAUAUCUC [C39U U41C U49C], the self-cleavage amounted to 0.75.
